Laboratory results: the antibiotic and cytotoxicity screens of Wong et al. (2023)
This is one part of the list.

Tests used:
[1] = test system: HSkMC (human skeletal muscle cells); test: cytotoxicity call (relative viability < 0.9); conditions: 10 µM
[2] = test system: HepG2; test: cytotoxicity call (relative viability < 0.9); conditions: 10 µM
[3] = test system: S. aureus RN4220; test: growth inhibition call (relative growth <= 0.2); conditions: 50 µM

SMILES | cytotoxicity call [1] | cytotoxicity call [2] | growth inhibition call [3]
CCCN(CCC)S(=O)(=O)c1ccc(C(=O)N(c2cccc(SC)c2)[C@H]2OC(=O)c3ccccc32)cc1 | inactive | inactive | inactive
COC(=O)[C@H](Cc1ccccc1)N1CC2=C[C@@H](C3CC3)n3c(=O)n(C)c(=O)n3[C@H]2[C@@H]1[C@@H](O)Cc1ccccc1 | inactive | inactive | inactive
COc1ccc(S(=O)(=O)N(C)C[C@@H]2Oc3ccc(NC(=O)Cc4ccccc4)cc3CC(=O)N([C@@H](C)CO)C[C@H]2C)cc1 | inactive | inactive | inactive
O=C1O[C@@H]2C[C@H]1N(C(=O)[C@@H]1CC=CCC1)C2 | inactive | inactive | inactive
C[C@@H]1CN([C@@H](C)CO)C(=O)c2c(c3ccccc3n2C)-c2ccccc2CO[C@@H]1CN(C)Cc1ccc(Cl)c(Cl)c1 | inactive | inactive | inactive
N[C@H](C(=O)O)c1ccc(O)c(C(=O)O)c1 | inactive | inactive | inactive
C[C@@H]1CCCCO[C@H](CN(C)C(=O)Nc2ccccc2)[C@H](C)CN([C@@H](C)CO)C(=O)c2cc(NC(=O)c3ccccc3)ccc2O1 | inactive | inactive | inactive
C[C@@H]1CN([C@H](C)CO)C(=O)c2cc(NS(=O)(=O)c3cn(C)cn3)ccc2O[C@@H]1CN(C)Cc1ccncc1 | inactive | inactive | inactive
CN(C)C(=O)c1ccc(-c2ccc3n(c2=O)C[C@@H]2[C@@H](CO)[C@H](C(=O)NCCc4ccccc4)N[C@H]32)cc1 | inactive | inactive | inactive
C[C@@H]1CCCCO[C@H](CN(C)C(=O)NC2CCCCC2)[C@@H](C)CN([C@@H](C)CO)C(=O)c2cc(NC(=O)CCC(F)(F)F)ccc2O1 | inactive | inactive | inactive
C[C@@H]1CCCCO[C@H](CN(C)C(=O)Nc2ccccc2)[C@H](C)CN([C@@H](C)CO)C(=O)c2cc(NC(=O)C3CCCCC3)ccc2O1 | inactive | inactive | inactive
COc1ccc(CN(C)C[C@H]2OCCCC[C@H](C)Oc3ccc(NC(=O)c4ccncc4)cc3C(=O)N([C@@H](C)CO)C[C@H]2C)cc1 | inactive | inactive | inactive
COc1ccc(S(=O)(=O)Nc2ccc3c(c2)CC(=O)N([C@H](C)CO)C[C@@H](C)[C@@H](CN(C)S(=O)(=O)c2cn(C)cn2)O3)cc1 | inactive | inactive | inactive
COc1ccc(NC(=O)Nc2ccc3c(c2)CC(=O)N([C@H](C)CO)C[C@H](C)[C@@H](CN(C)C(=O)Nc2ccc(C(F)(F)F)cc2)O3)cc1 | inactive | inactive | inactive
C[C@@H]1CN([C@@H](C)CO)C(=O)c2cc(C#CC3CCCC3)cnc2O[C@H]1CN(C)S(=O)(=O)c1cccc(F)c1 | inactive | active | inactive
COc1ccc(S(=O)(=O)Nc2ccc3c(c2)C(=O)N([C@@H](C)CO)C[C@@H](C)[C@@H](CN(C)S(C)(=O)=O)O3)cc1 | inactive | inactive | inactive
Cc1noc(C)c1NC(=O)Nc1ccc2c(c1)C(=O)N([C@@H](C)CO)C[C@@H](C)[C@H](CN(C)C(=O)Nc1c(C)noc1C)OCCCC[C@H](C)O2 | inactive | inactive | inactive
CO[C@H]1CN(C)C(=O)c2ccc(NC(=O)Nc3ccccc3)cc2OC[C@H](C)N(C(=O)CN(C)C)C[C@@H]1C | inactive | inactive | inactive
COc1ccc(S(=O)(=O)Nc2ccc3c(c2)C(=O)N([C@@H](C)CO)C[C@@H](C)[C@H](CN(C)S(=O)(=O)c2cn(C)cn2)OCCCC[C@@H](C)O3)cc1 | inactive | inactive | inactive
Cc1ccc(S(=O)(=O)N(C)C[C@@H]2OCCCC[C@H](C)Oc3ccc(NS(=O)(=O)c4ccc(Cl)cc4)cc3C(=O)N([C@H](C)CO)C[C@@H]2C)cc1 | inactive | inactive | inactive
C[C@H]1CN([C@@H](C)CO)C(=O)c2cccc(NC(=O)C3CCOCC3)c2O[C@H]1CN(C)S(=O)(=O)c1ccc(Cl)cc1 | inactive | inactive | inactive
C[C@H]1CN([C@@H](C)CO)C(=O)c2cccc(NC(=O)Nc3cccc4ccccc34)c2O[C@H]1CN(C)S(=O)(=O)c1cccs1 | inactive | inactive | inactive
Cc1nn(C)c(C)c1Nc1nnc(N)[nH]1 | inactive | inactive | inactive
C[C@H]1CN([C@@H](C)CO)C(=O)c2cccc(NC(=O)c3ccncc3)c2O[C@@H]1CN(C)Cc1ccc(C(=O)O)cc1 | inactive | inactive | inactive
C[C@H]1CN([C@@H](C)CO)C(=O)Cc2cc(NS(=O)(=O)c3ccc(F)cc3)ccc2O[C@H]1CN(C)S(=O)(=O)c1ccc(F)cc1 | inactive | inactive | inactive
C[C@@H]1CCCCO[C@@H](CN(C)C(=O)Cc2ccccc2)[C@@H](C)CN([C@H](C)CO)C(=O)c2cc(NC(=O)CCC(F)(F)F)ccc2O1 | inactive | inactive | inactive
C[C@@H]1CCCCO[C@@H](CN(C)Cc2ccccc2)[C@@H](C)CN([C@@H](C)CO)C(=O)c2cc(NC(=O)c3ccncc3)ccc2O1 | inactive | inactive | inactive

SMILES | cytotoxicity call [1] | cytotoxicity call [2] | growth inhibition call [3]
COc1ccc(S(=O)(=O)Nc2ccc3c(c2)C(=O)N([C@H](C)CO)C[C@@H](C)[C@H](CN(C)C(=O)Nc2ccc4c(c2)OCO4)OCCCC[C@H](C)O3)cc1 | inactive | inactive | inactive
C[C@@H]1CN([C@@H](C)CO)C(=O)c2cc(NS(=O)(=O)c3cn(C)cn3)ccc2O[C@@H](C)CCCCO[C@@H]1CN(C)S(=O)(=O)c1ccc(F)cc1 | inactive | inactive | inactive
C[C@@H]1CN([C@H](C)CO)C(=O)c2cc(C#CCc3ccccc3)cnc2O[C@@H]1CN(C)C(=O)C1CCOCC1 | inactive | inactive | inactive
C[C@@H]1CCCCO[C@H](CN(C)C(=O)Nc2ccc(C(F)(F)F)cc2)[C@@H](C)CN([C@@H](C)CO)C(=O)c2cc(NC(=O)NC3CCCCC3)ccc2O1 | inactive | inactive | inactive
Cc1noc(C)c1NC(=O)N[C@@H]1CC[C@@H](CC(=O)NCCCN(C)C)O[C@@H]1CO | inactive | inactive | inactive
COc1ccccc1S(=O)(=O)N[C@@H]1CC[C@H](CCNC(=O)C2CC2)O[C@@H]1CO | inactive | inactive | inactive
CC(C)NC(=O)Nc1ccc2c(c1)CC(=O)N([C@@H](C)CO)C[C@@H](C)[C@H](CN(C)S(=O)(=O)c1ccccc1)O2 | inactive | inactive | inactive
COc1ccc(S(=O)(=O)Nc2ccc3c(c2)CC(=O)N([C@@H](C)CO)C[C@@H](C)[C@H](CN(C)Cc2ccc(-c4ccccc4)cc2)O3)cc1 | inactive | active | inactive
C[C@@H]1CN([C@@H](C)CO)C(=O)c2cc(NC(=O)CCC(F)(F)F)ccc2O[C@@H](C)CCCCO[C@H]1CN(C)S(=O)(=O)c1cccs1 | inactive | inactive | inactive
C[C@@H]1CN([C@@H](C)CO)C(=O)c2cc(Br)cnc2O[C@H]1CN(C)C(=O)Nc1ccc2c(c1)OCO2 | inactive | inactive | inactive
C[C@@H]1CN([C@@H](C)CO)C(=O)Cc2cc(NC(=O)Nc3ccc(F)cc3)ccc2O[C@H]1CN(C)C(=O)Nc1ccc(C(F)(F)F)cc1 | inactive | inactive | inactive
Cc1ccc(CN2CCN(CCO)CC2)o1 | inactive | inactive | inactive
O=C(C[C@H]1CC[C@@H]2[C@H](COC[C@H](O)CN2S(=O)(=O)c2ccc(Cl)cc2)O1)N[C@H]1CCN(Cc2ccccc2)C1 | inactive | inactive | inactive
COc1ccc(CN(C)C[C@@H]2Oc3ccc(NC(=O)Cn4cnnn4)cc3CC(=O)N([C@H](C)CO)C[C@@H]2C)cc1 | inactive | inactive | inactive
C[C@H](O)C#Cc1cnc2c(c1)C(=O)N([C@H](C)CO)C[C@H](C)[C@H](CN(C)C(=O)Nc1ccc(C(F)(F)F)cc1)O2 | inactive | inactive | inactive
C[C@@H]1CCCCO[C@@H](CN(C)Cc2ccc(C(F)(F)F)cc2)[C@@H](C)CN([C@H](C)CO)C(=O)c2cc(NS(C)(=O)=O)ccc2O1 | inactive | inactive | inactive
C[C@@H]1CCCCO[C@@H](CN(C)Cc2ccc(Cl)c(Cl)c2)[C@H](C)CN([C@@H](C)CO)C(=O)c2cc(NS(=O)(=O)c3cccs3)ccc2O1 | inactive | inactive | inactive
CCCNC(=O)C[C@H]1CC[C@H]2[C@H](COc3ccc(NC(=O)c4ccc5c(c4)OCO5)cc3C(=O)N2C)O1 | inactive | inactive | inactive
C[C@@H]1CN([C@H](C)CO)C(=O)c2cc(NC(=O)Cn3cnnn3)ccc2O[C@H]1CN(C)S(=O)(=O)c1cn(C)cn1 | inactive | inactive | inactive
OCCN(CCO)c1nc(N2CCCCC2)c2nc(N(CCO)CCO)nc(N3CCCCC3)c2n1 | inactive | inactive | inactive
CC(C)NC(=O)N(C)C[C@H]1Oc2ccc(NS(=O)(=O)c3ccc(Cl)cc3)cc2CC(=O)N([C@H](C)CO)C[C@H]1C | inactive | inactive | inactive
C[C@H]1CN([C@@H](C)CO)C(=O)c2cccc(NS(=O)(=O)c3cn(C)cn3)c2O[C@H]1CN(C)Cc1ccncc1 | inactive | inactive | inactive
NCC[C@H]1CC[C@H](NC(=O)c2ccccc2F)[C@H](CO)O1 | inactive | inactive | inactive
C[C@H](CO)N1C[C@H](C)[C@H](CN(C)Cc2ccc(Oc3ccccc3)cc2)Oc2ccc(NC(=O)Cn3cnnn3)cc2C1=O | inactive | inactive | inactive
COCC#Cc1cnc2c(c1)C(=O)N([C@@H](C)CO)C[C@@H](C)[C@@H](CN(C)C(=O)c1cnccn1)O2 | inactive | inactive | inactive
CO[C@@H](CN(C)S(=O)(=O)c1cccc(Cl)c1)[C@H](C)CN([C@@H](C)CO)S(=O)(=O)c1cccc(Cl)c1 | inactive | inactive | inactive
